Experiments:
[1] = test system: mcl-1−/− MEF Vector Control; assay: CellTiter-Glo cell viability, Mcl-1-/- MEF empty vector control, 96 hours; format: cell-based, mouse
Experimental: Retroviral supernatants were produced through transfection of the GP2-293 packaging cell line (Clontech) with the retroviral construct pLVC-IRES-Hygro (Clontech) containing huEGFR sequence or the empty vector utilizing FuGENE 6 transfection reagent (Roche Molecular Biochemicals, Mannheim, Germany). After 48 hours of culture, virus-containing supernatant was harvested and applied to mcl-1^−/− MEFs in 75 cm^2 culture flasks (0.5×10^6 per flask) for a further 48 hours in the presence of polybrene (8 μg/ml; Sigma). Mcl-1^−/− MEFs were washed and selected after 3 days with 250 μg/mL hygromycin B (Invitrogen) in the full complement of media. The expression of huEGFR was confirmed by flow cytometry and compared to the parental cell line or those transfected with the empty vector.
Mcl-1^−/− MEFs expressing huEGFR or the pLVX empty vector (Vct Ctrl) were treated with AB033-targeted Bcl-xL-ADCs, AB033 alone or MSL109-targeted Bcl-xL-ADCs for 96 hours in DMEM containing 10% FBS. For the assay, the cells were plated at 250 cells per well in 384-well tissue culture plates (Corning, Corning, NY) in a total volume of 25 μL of assay media (DMEM and 10% HI FBS). The plated cells were treated with a 4-fold serial dilution of the Antibody Drug Conjugates of interest from either 1 μM or 0.5 μM to either 1 50 μM or 25 μM, respectively. Each concentration was tested in at least three replicates for the Mcl-1^−/− MEF huEGFR cell line and for the Mcl-1^−/− MEF vector cell line. The fraction of viable cells following 96 hours of Antibody Drug Conjugate treatment at 37° C. and 5% CO2 was determined using the CellTiter-Glo Luminescent Cell Viability Assay according to the manufacturer's recommendations (Promega Corp., Madison, WI). The plates were read in a Perkin Elmer Envision using a Luminescence protocol with 0.1 see integration time. The replicate values for each dilution point were averaged and the EC50 values for the Antibody Drug Conjugates were generated by fitting the data with GraphPad Prism 5 (GraphPad Software, Inc.) to a sigmoidal curve model using linear regression, Y=((Bottom−Top)/(1+((x/K)^n)))+Top, where Y is the measured response, x is the compound concentration, n is the Hill Slope and K is the EC50 and Bottom and Top are the lower and higher asymptotes respectively. Visual inspection of curves was used to verify curve fit results. Mcl-1^−/− MEFs were obtained from David C. S. Huang of the Walter and Eliza Hall Institute of Medical Research.

[2] = Size exclusion chromatography (SEC), % aggregate fraction of ADCs; format: physicochemical; details: Shodex KW802.5, absorbance at 280 nm
Experimental: Size exclusion chromatography (SEC) was performed using a Shodex KW802.5 column in 0.2M potassium phosphate pH 6.2 with 0.25 mM potassium chloride and 15% isopropyl alcohol at a flow rate of 0.75 ml/min. The peak area absorbance at 280 nm was determined for each of the high molecular weight and monomeric eluents by integration of the area under the curve. The % aggregate fraction of the conjugate sample was determined by dividing the peak area absorbance at 280 nm for the high molecular weight eluent by the sum of the peak area absorbances at 280 nM of the high molecular weight and monomeric eluents multiplied by 100%.
The average DAR values were determined using the above LC-MS method. The % aggregate fraction for the ADCs was also determined using the SEC method described in Example 2.2. The DAR and % aggregation are both reported below in Table 7.

[3] = test system: NCI-H1650 xenograft; assay: NCI-H1650 flank xenograft model of NSCLC, tumor growth inhibition and delay; format: in vivo, SCID/bg mice; details: Table 10; 10 mg/kg/day, QD × 1/IP

B1: AbG-CZ (conjugate)
heavy: EVQLQESGPGLVKPSQTLSLTCTVSGYSISNDFAWNWIRQLPGKGLEWMGYISYKGNTRYQPSLKSRITISRDTSKNQFFLKLNSVTAADTATYYCVTASRGLPYWGQGTLVTVSS[human IgG1 constant region left out here]
light: DIQMTQSPSSMSVSVGDRVTITCHSSQDITYNIGWLQQKPGKSFKGLIYHGANLDDGVPSRFSGSGSGTDYTLTISSLQPEDFATYYCVQYDEFPWTFGGGTKLEIKRTVAAPSVFIFPPSDEQLKSGTASVVCLLNNFYPREAKVQWKVDNALQSGNSQESVTEQDSKDSTYSLSSTLTLSKADYEKHKVYACEVTHQGLSSPVTKSFNRGEC
EC50 [1]: 194 nM | % Agg (by SEC) [2]: 4%

B2: AbG-SE (conjugate)
heavy: B1 heavy
light: B1 light
% Agg (by SEC) [2]: 2.1%

B3: AbG-YY (conjugate)
heavy: B1 heavy
light: B1 light
% Agg (by SEC) [2]: 16.5%

B4: AbG-SR (conjugate)
heavy: B1 heavy
light: B1 light
% Agg (by SEC) [2]: 36.7%

B5: AbG-AAA (conjugate)
heavy: B1 heavy
light: B1 light
% Agg (by SEC) [2]: 17.5% | TGImax [3]: 76%

B6: AbG-ZT (conjugate)
heavy: B1 heavy
light: B1 light
% Agg (by SEC) [2]: 12.4%

B7: AbG-AAD (conjugate)
heavy: B1 heavy
light: B1 light
modifications: non-natural residues
% Agg (by SEC) [2]: 2.5%

B8: AbG-XW (conjugate)
heavy: B1 heavy
light: B1 light
EC50 [1]: 246 nM | % Agg (by SEC) [2]: 5.9% | TGImax [3]: 76%

B9: AbG-ZZ (conjugate)
heavy: B1 heavy
light: B1 light
% Agg (by SEC) [2]: 16.8%

B10: AbG-TV (conjugate)
heavy: B1 heavy
light: B1 light
EC50 [1]: 196 nM | % Agg (by SEC) [2]: 1.4%

B11: AbG-KZ (conjugate)
heavy: B1 heavy
light: B1 light
% Agg (by SEC) [2]: 11.6%

B12: AbG-TX (conjugate)
heavy: B1 heavy
light: B1 light
EC50 [1]: 368 nM | % Agg (by SEC) [2]: 1.6% | TGImax [3]: 88%

B13: AbG-YG (conjugate)
heavy: B1 heavy
light: B1 light
% Agg (by SEC) [2]: 2.4%

Source: patent publication US20240199745A1, “ANTI-EGFR ANTIBODY DRUG CONJUGATES” (priority 2016, published 2024)
